Publication PMC4336329 (PLoS ONE, 2015)
Out of some 310,000 compounds screened, about 2,200 (0.71%) showed an effect of 50% or more. The effect is printed as a negative number. The list shows a part of the results.

Target: human ether-à-go-go-related gene (hERG) potassium channel (human, UniProt Q12809)
Assay: primary screen, population patch clamp on CHO cells stably expressing hERG

Sequence of human ether-à-go-go-related gene (hERG) potassium channel (Q12809 whole entry, looked up): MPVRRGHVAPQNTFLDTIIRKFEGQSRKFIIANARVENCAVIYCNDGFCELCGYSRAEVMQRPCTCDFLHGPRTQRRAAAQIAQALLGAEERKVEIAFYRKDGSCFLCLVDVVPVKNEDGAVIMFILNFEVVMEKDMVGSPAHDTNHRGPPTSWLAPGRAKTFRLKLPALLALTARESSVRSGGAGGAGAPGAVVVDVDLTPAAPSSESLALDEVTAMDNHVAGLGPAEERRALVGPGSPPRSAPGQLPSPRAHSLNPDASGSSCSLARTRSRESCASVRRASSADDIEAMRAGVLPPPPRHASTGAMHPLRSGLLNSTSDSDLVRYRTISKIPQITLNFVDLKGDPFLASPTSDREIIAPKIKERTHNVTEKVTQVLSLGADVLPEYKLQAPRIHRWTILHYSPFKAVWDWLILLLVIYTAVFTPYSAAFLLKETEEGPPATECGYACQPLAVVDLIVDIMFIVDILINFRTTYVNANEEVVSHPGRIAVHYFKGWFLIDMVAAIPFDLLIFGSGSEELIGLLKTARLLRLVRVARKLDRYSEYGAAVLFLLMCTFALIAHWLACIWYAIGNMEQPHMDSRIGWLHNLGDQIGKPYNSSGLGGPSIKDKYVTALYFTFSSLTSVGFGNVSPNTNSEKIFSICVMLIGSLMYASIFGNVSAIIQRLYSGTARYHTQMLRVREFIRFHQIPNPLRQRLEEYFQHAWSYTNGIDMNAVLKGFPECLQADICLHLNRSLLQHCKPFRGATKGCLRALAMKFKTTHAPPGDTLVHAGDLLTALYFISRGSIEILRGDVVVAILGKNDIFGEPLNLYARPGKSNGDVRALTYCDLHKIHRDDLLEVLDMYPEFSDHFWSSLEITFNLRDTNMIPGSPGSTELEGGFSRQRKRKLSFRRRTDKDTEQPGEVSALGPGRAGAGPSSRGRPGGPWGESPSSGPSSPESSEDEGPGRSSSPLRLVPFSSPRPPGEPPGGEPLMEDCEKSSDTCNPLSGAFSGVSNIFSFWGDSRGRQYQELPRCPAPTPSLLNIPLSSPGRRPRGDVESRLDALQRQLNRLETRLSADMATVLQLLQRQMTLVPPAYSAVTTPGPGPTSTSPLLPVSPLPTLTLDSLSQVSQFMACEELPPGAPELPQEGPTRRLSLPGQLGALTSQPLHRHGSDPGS

| SMILES | hERG current change (%, negative = inhibition) at 1uM [%] |
| --- | --- |
| CC(=O)Nc1ccc(S(=O)(=O)N(c2cccnc2)S(=O)(=O)c2ccc(NC(C)=O)cc2)cc1 | -8.93 |
| Cc1cc(C)n(C(=O)c2ccc(NC(=O)C3CC3)cc2)n1 | 10.7 |
| CC(=O)Nc1nonc1-n1nnc(C(=O)NCc2ccccc2)c1C | 1.87 |
| Oc1ccc(/C=N/N2CCCCC2)c(O)c1 | 13.4 |
| CCCC(=O)N(c1ccccc1)C1C=CS(=O)(=O)C1 (stereo not shown) | -0.782 |
| O=C(/C=C/c1ccccc1)NC(NC(=S)Nc1cccc(Cl)c1)C(Cl)(Cl)Cl (stereo not shown) | 8.13 |
| CC(=O)NNC(=O)CN1C(=O)/C(=C/c2ccccc2)SC1=S | 12 |
| Nc1c(C(=O)Nn2cnnc2)cc([N+](=O)[O-])cc1[N+](=O)[O-] | 5.97 |
| CCCN(CCC)C(=O)c1ccc2c(=O)n(Cc3ccco3)c(=S)[nH]c2c1 | 9.13 |
| NS(=O)(=O)c1ccc(NC(=S)NC(=O)c2cccs2)cc1 | 15.5 |
| CCOC(=O)c1oc2ccc(Br)cc2c1COC(=O)C1=COCCO1 | 12.1 |
| COC(=O)c1ccc(CSc2nc3ccc(Cl)cc3[nH]2)o1 | 6.36 |
| Cc1ccc(-c2cc(=O)[nH][nH]2)c(C)c1 | -4.61 |
| Cc1ccc(NC(=O)c2ccn(C)n2)c(Br)c1 | 7.39 |
| CCCCn1c(=O)[nH]c2c(oc3ccccc32)c1=O | 7.62 |
| COc1ccc(/C=N/NC(=O)c2ccc(COc3ccccc3Cl)o2)c(OC)c1C | 9.1 |
| O=C(CSc1nnc2n(C3CCCCC3)c(=O)c3ccccc3n12)OC1CCCCC1 | -0.251 |
| CCCCNC(=O)c1cc(C)nc2ccccc12 | 2.35 |
| CC(C)(C)c1ccc(C(=O)NC(=O)CSc2n[nH]c(N)n2)cc1 | 10.3 |
| COc1ccccc1C(CCNCc1ccc(N(C)C)cc1)c1ccc(OC(C)C)cc1 (stereo not shown) | -3.95 |
| C#CCNC(=O)/C=C/c1ccc(C)cc1 | 19 |
| CCCOc1cccc(C2C(C(=O)c3ccco3)=C(O)C(=O)N2CCN(CC)CC)c1 (stereo not shown) | 5.67 |
| CCSc1nnc(Nc2ccc(C)cc2)s1 | 11.9 |

| SMILES | hERG current change (%, negative = inhibition) at 1uM [%] |
| --- | --- |
| Cc1ccc(C2CC(c3ccccc3C)n3nc(N)nc3N2)cc1 (stereo not shown) | 5.99 |
| O=C(CN1C(=O)c2ccccc2S1(=O)=O)Nc1ccc(S(=O)(=O)N2CCCCCC2)cc1 | 13.6 |
| O=C(Nc1ccc(S(=O)(=O)NC2=NCCCCC2)cc1)c1ccc2ccccc2n1 | 14.2 |
| CC1CCCN(C(=O)COC(=O)c2cccc(NS(=O)(=O)c3ccccc3)c2)C1 (stereo not shown) | -0.847 |
| O=C(CN1CCN(S(=O)(=O)c2ccc(Br)cc2)CC1)N/N=C/c1ccc(Br)s1 | 0.52 |
| Cn1ncc(N)c1C(=O)Nc1cccc(C(F)(F)F)c1 | -0.822 |
| CC1C(=O)N2CCCc3cc(NC(=O)C(=O)NCc4ccc5c(c4)OCO5)cc1c32 (stereo not shown) | 6.89 |
| COCCNC(=S)N/N=C(\C)CCc1ccc2c(c1)OCO2 | 8.01 |
| CC1CCCC(NC(=O)c2cn(C)c3ccc(S(=O)(=O)N4CCCC4)cc3c2=O)C1C (stereo not shown) | -4.34 |
| O=S(=O)(c1ccccc1)N1CCN(C(=S)NC2CCCC2)CC1 | 10.7 |
| O=[N+]([O-])c1ccc(CN2CCN(c3ccc(F)cc3)CC2)o1 | 16.3 |
| CCCCN(C)Cc1c(C(=O)N2CCc3ccccc3C2)nc2ccc(Cl)cn12 | 2.59 |
| Cc1ccc2nc(SCC(=O)Nc3oc(C)c4c(C)n[nH]c(=O)c34)[nH]c2c1 | 17.8 |
| Cc1cc(C(=O)Nc2cnc3ccccc3c2)ccc1[N+](=O)[O-] | 13.6 |
| C/C(=C1\SC(N2CCOCC2)=NC1=O)c1ccccc1 | 3.48 |
| COc1cc(OC)cc(-c2nnc(NC(=O)CCS(=O)(=O)c3ccc(F)cc3)o2)c1 | 12.4 |
| CCC(C(=O)Nc1ccc2[nH]ncc2c1)c1ccccc1 (stereo not shown) | 9.84 |
| COc1cc(/C=C/c2nc3ccccc3c(=O)[nH]2)cc(Cl)c1O | 19.4 |
| COc1ccc(S(=O)(=O)N2CCC(C(=O)N3CCCC3)CC2)cc1Cl | 2.19 |
| COc1cc(OC)c(C2Nc3cccc4cccc(c34)N2)c(OC)c1 | 8.78 |
| CCOc1ccc(CCNC(=O)Cn2c(-c3nonc3N)nc3ccccc32)cc1OCC | 7.38 |
| Cc1cccc(/C(N)=N/OC(=O)COc2ccc(Cl)cc2)c1 | 6.96 |
| C=C(C)Cn1c(SCCCO)nc2c1c(=O)[nH]c(=O)n2C | 8.87 |

| SMILES | hERG current change (%, negative = inhibition) at 1uM [%] |
| --- | --- |
| O=C(O)c1ccc(N2C(=O)c3cccc4cccc(c34)C2=O)cc1 | 16.7 |
| Cc1cc(CN2CCCC(CO)(Cc3cccc(Cl)c3)C2)n[nH]1 (stereo not shown) | -8.25 |
| CCNc1nc(NC(C)C)nc(N(C#N)CC(=O)OC)n1 | 8.17 |
| Cc1ccc(-c2cc(C(=O)NNC(=O)c3csc(N4CCOCC4)n3)c3ccccc3n2)cc1 | 14.1 |
| CC(C)c1ccc(C(=O)NC(=S)NCc2cccnc2)cc1 | 5.56 |
| COC(=O)c1ccc2c(c1)N(C)CCS2 | 8.41 |
| O=C(NCCCN1CCCCC1)c1ccc2c(c1)NC(=O)C(N1CCOCC1)S2 (stereo not shown) | 8.02 |
| COc1ccccc1CNC(=O)c1cc2c(C)nn(Cc3ccc(F)cc3)c2s1 | 2.55 |
| CC(C)Sc1ccccc1C(=O)Nc1ccc2c(c1)n(C)c(=O)n2C | 15.1 |
| CCNC(=S)N1CCN(C(c2ccccc2)c2ccccc2)CC1 | 11.1 |
| CCOC(=O)NC(=O)CSc1cc(C)c2cc(C)cc(C)c2n1 | 13.2 |
| COCCNC(=O)CN(c1cccc(OC)c1)S(=O)(=O)c1ccc(C)cc1 | 1.78 |
| CCOc1ccc(OCCOCCN2CCc3ccccc3C2)cc1 | -35.4 |
| CS(=O)(=O)N1CCN(c2ccc(NC(=O)c3cc4ccccc4o3)cc2)CC1 | 11.9 |
| O=[N+]([O-])c1ccc(N/N=C/c2ccccc2O)cc1 | 13 |
| COC(OC)c1ccnc(SCc2ccccc2Cl)n1 | 0.772 |
| CCN1C(=O)CC(N2CCC(C(=O)OC)CC2)C1=O (stereo not shown) | 13.7 |
| CC(C)c1ccc(/C=C/C(=O)N2CCCCCC2)cc1 | -0.9 |
| CSc1nc2sc3c(c2c2nnnn12)CCCC3 | 12.7 |
| O=C(NCc1ccc2c(c1)OCO2)C1CCCCC1 | 4.95 |
| COc1cc(/C=C2\S/C(=N/S(=O)(=O)c3ccccc3)NC2=O)c([N+](=O)[O-])cc1OC | 9 |
| Cc1cc2ccccc2nc1SCC(=O)NC1CCCCC1 | 10.2 |
| CCN(CC(=O)Nc1ccc([N+](=O)[O-])cc1OC)c1ccccc1 | -2.55 |

| SMILES | hERG current change (%, negative = inhibition) at 1uM [%] |
| --- | --- |
| O=C(Nc1cccc(F)c1)c1ccccc1-c1ccccc1 | -5.75 |
| O=c1ccnc(NCCc2ccccc2)[nH]1 | 19.5 |
| CCOC(=O)/C(=N/Nc1ccccc1)N1CCCc2ccccc21 | 5.43 |
| O=C(Cc1ccc(Cl)cc1)Nc1ccc(-c2cc3ccccc3oc2=O)c(Cl)c1 | -0.941 |
| COCCOC(=O)C1=C(C)NC2=C(C(=O)CCC2)C1c1ccc2c(c1)OCO2 (stereo not shown) | 3.71 |
| O=C(NCc1ccccc1)C1Cc2ccccc2CN1C(=O)c1ccco1 (stereo not shown) | 7.78 |
| Cc1ccccc1NC(=O)c1cc(S(=O)(=O)N2CCOCC2)ccc1F | 9.74 |
| CCN(CC)S(=O)(=O)c1ccc(Cl)c(C(=O)NC2CCN(Cc3ccccc3)CC2)c1.Cl | 7.64 |
| CO/N=C/c1ccc(N2CCCC2)c([N+](=O)[O-])c1 | 5.95 |
| CCOc1ccc(C(=O)Nc2ccc(N3CCN(S(C)(=O)=O)CC3)cc2)cc1[N+](=O)[O-] | 9.17 |
| COc1cc(/C=N/NC(=O)c2ccncc2)ccc1O.O | 16.7 |
| CC1(C)CC(=O)C=C(c2cccc(Br)c2)C1 | 13.5 |
| Cc1ccc(-n2cnnn2)c2cccnc12 | 11.9 |
| CC(C)OC(=O)c1c(N)n(CCCN2CCOCC2)c2nc3ccccc3nc12 | 2.68 |
| COc1ccc(NC(=O)CSc2ncc(-c3ccc(F)cc3)n2Cc2ccco2)cc1 | 16.8 |
| CC(=O)NC(CC(=O)NCCOc1ccccc1F)c1ccccc1 (stereo not shown) | 13.8 |
| CC(C)Oc1ccc(C(=O)O)cc1 | 14.1 |
| COC(=O)c1c(N)sc2c1CC(C)(C)OC2 | 13.8 |
| COc1ccc(C(=O)NC(C)c2cc(OC)c(OC)cc2Br)cc1 (stereo not shown) | -10.8 |
| O=C(O)CCN1C(=O)NC2(CCCC2)C1=O | 3.71 |
| CN(C)S(=O)(=O)c1cccc(NC(=O)CN(CCO)CC(=O)Nc2cccc(S(=O)(=O)N(C)C)c2)c1 | 13.6 |
| COc1ccc(S(=O)(=O)NCC(c2cccnc2)N2CCN(c3ccccc3)CC2)cc1C (stereo not shown) | -1.72 |
